# Test results from article PMC4336329 (PLoS ONE, 2015).
# In all, about 310,000 compounds went through this assay and about 14,000 (4.5%) showed an effect of 50% or more. The effect is printed as a negative number. The list shows a part of the results.
# Biological target: human ether-à-go-go-related gene (hERG) potassium channel (human, UniProt Q12809)
# Assay: primary screen, population patch clamp on CHO cells stably expressing hERG
# 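Further: peak tail current of the secondary pulse compared with the same well before compound.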
# Chain of human ether-à-go-go-related gene (hERG) potassium channel (Q12809 whole entry, looked up): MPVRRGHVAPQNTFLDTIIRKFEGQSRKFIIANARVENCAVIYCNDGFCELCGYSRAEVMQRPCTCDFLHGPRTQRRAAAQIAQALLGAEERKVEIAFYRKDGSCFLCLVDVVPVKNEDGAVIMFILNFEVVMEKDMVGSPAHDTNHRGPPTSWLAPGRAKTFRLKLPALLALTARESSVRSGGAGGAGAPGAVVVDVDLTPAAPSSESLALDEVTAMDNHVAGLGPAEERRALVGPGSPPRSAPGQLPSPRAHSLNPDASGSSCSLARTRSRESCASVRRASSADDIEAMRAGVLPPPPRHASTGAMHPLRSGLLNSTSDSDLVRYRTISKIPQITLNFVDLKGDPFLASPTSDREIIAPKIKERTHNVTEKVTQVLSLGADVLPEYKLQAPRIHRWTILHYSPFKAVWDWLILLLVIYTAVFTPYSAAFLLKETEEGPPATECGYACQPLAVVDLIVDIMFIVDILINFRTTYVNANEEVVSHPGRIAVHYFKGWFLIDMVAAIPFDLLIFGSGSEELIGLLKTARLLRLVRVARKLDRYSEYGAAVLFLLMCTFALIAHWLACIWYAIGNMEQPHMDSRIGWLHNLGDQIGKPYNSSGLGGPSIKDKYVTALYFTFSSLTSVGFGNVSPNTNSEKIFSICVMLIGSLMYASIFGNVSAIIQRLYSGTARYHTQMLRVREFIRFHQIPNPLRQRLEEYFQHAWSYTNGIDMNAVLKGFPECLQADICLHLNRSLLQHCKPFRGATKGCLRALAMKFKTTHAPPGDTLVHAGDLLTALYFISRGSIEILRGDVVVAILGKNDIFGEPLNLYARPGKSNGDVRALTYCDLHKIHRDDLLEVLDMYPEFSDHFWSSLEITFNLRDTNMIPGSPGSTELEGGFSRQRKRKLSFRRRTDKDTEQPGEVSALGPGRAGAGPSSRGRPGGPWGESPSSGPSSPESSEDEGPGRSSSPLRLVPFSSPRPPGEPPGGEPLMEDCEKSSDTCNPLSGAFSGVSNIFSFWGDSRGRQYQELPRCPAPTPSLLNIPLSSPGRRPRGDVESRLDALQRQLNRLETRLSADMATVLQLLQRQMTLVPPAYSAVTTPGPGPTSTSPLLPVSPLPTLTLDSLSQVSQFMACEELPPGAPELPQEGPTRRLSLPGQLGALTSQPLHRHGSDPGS
row,SMILES,"hERG current change (%, negative = inhibition) at 10uM [%]"
1,COC(=O)c1cccc(NC(=O)Cn2cnc3c2c(=O)n(C)c(=O)n3C)c1,-4.78
2,COc1cc(NC(=O)CNC(=O)Cn2c(C)cc3ccccc3c2=O)cc(OC)c1OC,22
3,O=C(NCc1cccnc1)/C(=C\c1ccc(-c2ccc(Cl)c(Cl)c2)o1)S(=O)(=O)c1ccccc1,-4.99
4,CCCS(=O)(=O)c1nc(S(=O)(=O)c2ccc(C)cc2)c(NCCCn2ccnc2)s1,-29.6
5,COc1ccccc1Nc1nc(N)nc(CSc2nnc(C)s2)n1,-2.07
6,CC(C)CC(=O)NC(=S)Nc1ccc(N2CCCC2)c(Cl)c1,12.9
7,Nc1ccc(Oc2ccc3nc(-c4ccccc4)c(-c4ccc([N+](=O)[O-])cc4)nc3c2)cc1,2.12
8,CCc1nn2c(=O)c(S(=O)(=O)Nc3ccc(Cl)cc3)c(C)nc2s1,-20.5
9,COc1ccc(NC2=NC3(CCCCC3)N=C(N)N2)cc1,0.716
10,Cc1ccc(S(=O)(=O)N2CCOCC2)cc1C(=O)N1CCC(Cc2ccccc2)CC1,-5.38
11,C/C(=N\O)C(C)Oc1ccc(Cl)cc1 (stereo not shown),0.654
12,CC(C)[C@@H]1C=C(C(=O)O)O[C@H](OCCCCO)C1,11.3
13,COc1cc(C(=O)NCCOc2ccc(Cl)cc2)ccc1OCc1c(C)noc1C,6
14,CN1CCN(c2ccc(S(=O)(=O)N3CCCCC3)cc2NC(=O)c2ccc(F)cc2F)CC1,-68.4
15,Cc1ccc(-c2nnn(CCC(=O)N3CCCCC3C)n2)cc1 (stereo not shown),-1.73
16,CC1(C)CC(NC(=O)C23CCC(C)(C(=O)C2=O)C3(C)C)CC(C)(C)N1 (stereo not shown),12.8
17,O=C(CCC1CCCCC1)Nc1ccc(S(=O)(=O)Nc2nccs2)cc1,-5.52
18,COc1ccc(C(c2c(C)n(C)n(-c3ccccc3)c2=O)c2c(C)n(C)n(-c3ccccc3)c2=O)cc1O,-2.62
19,COc1cccc(C(C(=O)NC(C)(C)C)N(Cc2ccc(C)cc2)C(=O)CCC(=O)Nc2cc(C)on2)c1OC (stereo not shown),6.04
20,O=C(/C=C/c1ccc(F)cc1)NC(=S)N1CCN(c2ccccn2)CC1,-26.2
21,Cc1ccc(C)c(N(C(=O)CCC(=O)Nc2cc(C)on2)C(C(=O)NC2CCCC2)c2ccco2)c1 (stereo not shown),10.2
22,Cc1ccc2nc(SCC(=O)Nc3cc(C)on3)nc(=O)n2c1,16.8
23,CCOC(=O)CSC1=C(C#N)C(c2ccc(C)o2)CC(=O)N1 (stereo not shown),6.2
24,N#CC12CCCCC1CC1CCCCC1(C#N)N2N (stereo not shown),1.07
25,O=C(NNc1ccc([N+](=O)[O-])cc1)Nc1ccccc1,-16.2
26,CCc1nnc(NC(=O)CSc2nnc(-c3ccco3)n2CCOC)s1,9.29
27,Cc1ccc(OCC(=O)OC(C)CN(C)Cc2ccccc2)cc1.Cl (stereo not shown),2.03
28,COC(=O)/C(NC(C)=O)=C(\C)c1ccc(Cl)cc1,4.09

row,SMILES,"hERG current change (%, negative = inhibition) at 10uM [%]"
1,COc1cccc(NC(=O)C2C3C=CC4(O3)C2C(=O)N(CCCN2CCC(C)CC2)C4C(=O)NC2CCCCC2)c1 (stereo not shown),24.3
2,COc1ccc(/C=C/C(=O)OCC(=O)NC2CCCC(C)C2C)cc1S(=O)(=O)N1CCOCC1 (stereo not shown),18.2
3,Cc1ccc(OCC(O)Cn2c3ccccc3c3ccccc32)cc1 (stereo not shown),8.1
4,CC1CCN(CC(=O)N2CC(=O)Nc3ccccc32)CC1,19.9
5,Cc1cc2occ(CC(=O)O)c2cc1C,1.71
6,COc1ccc(CCNC(=O)C(=O)NCC2OCCN2S(=O)(=O)c2ccc(F)cc2)cc1OC (stereo not shown),-4.74
7,N/C(=N\OC(=O)COc1cc(Cl)c(Cl)cc1Cl)c1ccccn1,17.7
8,O=C(CN1CCCC1)OCCCC1CCCCC1,2.79
9,CCOC(=O)C1=C(CN2CCCCC2)NC(=O)NC1c1cc(C)ccc1C (stereo not shown),-2.76
10,CCN(CC)S(=O)(=O)c1cc(NS(=O)(=O)c2cccc(Cl)c2Cl)ccc1C,-1.79
11,COc1ccc(-n2c(Cc3cccn3C)nnc2SCC(=O)Nc2ccc(Cl)cc2)cc1,-39.4
12,CCCCN(C(=S)Nc1cccc(SC)c1)C1CCN(C(C)=O)CC1,-28.9
13,O=C(NCCN1C(=O)S/C(=C\c2cccs2)C1=O)c1ccco1,-34.1
14,CCOC(=O)Cc1csc(NC(=O)CSc2nc3cccnc3n2CC)n1,-2.45
15,Cc1noc(C)c1C(=O)NC1CCCc2ccccc21 (stereo not shown),3.77
16,Cc1c(C(=O)OCCOc2ccc(Br)cc2)sc(=S)n1C,8.16
17,Cc1[nH]c2ccccc2c1C(=O)COC(=O)c1c(-c2c(F)cccc2Cl)noc1C,22.8
18,COc1ccccc1NC(=O)C(C)OC(=O)CSCC(=O)Nc1ccc(C)cc1C (stereo not shown),2.23
19,O=C(NN1C(=O)C2C3C=CC([C@@H]2C1=O)C31CC1)c1ccccc1 (stereo partly shown),18.3
20,CCOc1cc(NC(=O)Nc2ccccc2)c(OCC)cc1NC(=O)CC,22.8
21,CCCOc1ccc(-c2c(C(=O)N/N=C/C3CC=CCC3)nnn2-c2nonc2N)cc1 (stereo not shown),16.8
22,Cc1nn(C(=O)CCC(=O)NCc2ccccc2Cl)c2ccccc12,15.2
23,COc1nc(-c2ccccc2)cc(C(F)(F)F)n1,-10.6
24,Cc1ccc(SCC(=O)NCCN2C(=O)CSC2=O)c(C)c1,-6.73
25,Cc1cc(NS(=O)(=O)c2ccc(NC(=O)COc3ccccc3Cl)cc2)no1,-20.3
26,CCc1ccc(-c2nnn(Cc3nn[nH]n3)n2)cc1,-4.1
27,CC(=O)C1=C(C)Nc2ncnn2C1c1cccc(O)c1 (stereo not shown),19.2
